This passage reports binding results from paper PMC2851737.

Protein sequences, listed by entry. Tags and fused reporters are not part of them. Residues count along the entry.
UniProt Q9Y297: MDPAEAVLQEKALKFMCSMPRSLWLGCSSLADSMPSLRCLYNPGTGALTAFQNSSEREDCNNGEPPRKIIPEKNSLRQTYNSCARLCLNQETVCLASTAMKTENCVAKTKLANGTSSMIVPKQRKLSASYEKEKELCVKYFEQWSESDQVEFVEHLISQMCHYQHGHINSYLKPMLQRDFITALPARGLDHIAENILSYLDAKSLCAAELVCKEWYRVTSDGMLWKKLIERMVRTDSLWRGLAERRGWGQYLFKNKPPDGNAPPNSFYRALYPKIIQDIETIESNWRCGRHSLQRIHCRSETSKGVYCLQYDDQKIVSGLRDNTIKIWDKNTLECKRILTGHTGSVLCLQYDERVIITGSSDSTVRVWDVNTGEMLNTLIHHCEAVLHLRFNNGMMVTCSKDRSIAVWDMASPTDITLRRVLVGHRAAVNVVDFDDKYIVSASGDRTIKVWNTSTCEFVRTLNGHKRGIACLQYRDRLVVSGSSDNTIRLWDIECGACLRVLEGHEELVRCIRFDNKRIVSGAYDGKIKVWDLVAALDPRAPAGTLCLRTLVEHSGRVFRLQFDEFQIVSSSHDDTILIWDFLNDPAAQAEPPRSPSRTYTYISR
UniProt Q10589, residues 1-161: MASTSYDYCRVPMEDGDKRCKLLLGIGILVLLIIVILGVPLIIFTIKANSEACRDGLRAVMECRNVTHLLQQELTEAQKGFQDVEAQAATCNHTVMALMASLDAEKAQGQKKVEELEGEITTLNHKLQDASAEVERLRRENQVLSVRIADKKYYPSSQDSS

Read-outs that look alike come from different tables or passages of the source. These are yes or no findings as the source states them, for the method shown. Binding seen in cells or lysates may run through a third protein. Some results given as binding are weak or reduced against the parent protein; the word gives no strength.

For experiment [1], the target named is Myc-His-β-TrCP (UniProt Q9Y297). The experiment is described as follows: co-IP; HEK 293T cells transfected with SVCMV-vpu constructs and pcDNA/Myc-His-β-TrCP, radiolabelled with 35S-Met/Cys, lysed in CHAPS buffer; IP with anti-myc, then sequentially with anti-Vpu; SDS-PAGE and autoradiography.
The target of experiment [2] is endogenous Tetherin of HeLa cells (human (endogenous in HeLa)) (UniProt Q10589). The experiment is described as follows: co-IP; HeLa cells transfected with HxBH10 proviral constructs, 48 h; lysed in CHAPS buffer; pre-cleared; IP of endogenous Tetherin with anti-Tetherin rabbit serum and protein A sepharose; western blot with anti-Tetherin, anti-Vpu and anti-Env.
The target in experiment [3] is HA-human Tetherin (human) (UniProt Q10589). The experiment is described as follows: co-IP; HEK 293T cells co-transfected with HA-Tetherin plasmids and HxBH10 proviral constructs, 48 h; lysed in RIPA-DOC; pre-cleared; IP with anti-Tetherin rabbit serum 2 h at 4°C and protein A sepharose; western blot with anti-Vpu and anti-Tetherin (anti-HA in Fig. 7D). In general terms: A western blot detects proteins with antibodies after separation by electrophoresis.

The target of experiment [4] is Myc-His-β-TrCP (UniProt Q9Y297). The experiment is described as follows: co-IP; HEK 293T cells transfected with SVCMV-vpu constructs and pcDNA/Myc-His-β-TrCP, radiolabelled with 35S-Met/Cys, lysed in CHAPS buffer; IP with anti-myc, then sequentially with anti-Vpu; SDS-PAGE and autoradiography. This is another data set of the same source.

“Vpu S52D,S56D, expressed from SVCMV-vpu S52D,S56D in HEK 293T cells (from UniProt P69699 1-81)”: in the experiment with Myc-His-β-TrCP [1], the binding entry is “no binding”. Turning to “HIV-1 envelope glycoprotein precursor gp160 (from UniProt P03375 33-856)”, the binding result in experiment [2] was “no binding”.

B1: HIV-1 Vpu, wild type, expressed from the HxBH10-vpu+ proviral construct in HEK 293T cells (protein, UniProt P69699 1-81)
chain: MQPIQIAIVALVVAIIIAIVVWSIVIIEYRKILRQRKIDRLIDRLIERAEDSGNESEGEISALVEMGVEMGHHAPWDVDDL
As to B1, the binding entry in experiment [3] is on record as “binds”.

B2: HIV-1 Vpu, wild type, expressed from the HxBH10-vpu+ proviral construct in HeLa cells (protein, UniProt P69699 1-81)
chain: MQPIQIAIVALVVAIIIAIVVWSIVIIEYRKILRQRKIDRLIDRLIERAEDSGNESEGEISALVEMGVEMGHHAPWDVDDL
Consider B2, for which the binding entry in experiment [2] was “binds”.

B3: Vpu KSL, expressed from HxBH10-vpu KSL in HeLa cells (protein, UniProt P69699 1-81)
chain: MQPIQKASLALVVAIIIAIVVWSIVIIEYRKILRQRKIDRLIDRLIERAEDSGNESEGEISALVEMGVEMGHHAPWDVDDL
For B3, the binding entry in experiment [2] is on record as “no binding”.

B4: HIV-1 Vpu, wild type, expressed from SVCMV-vpu+ in HEK 293T cells (protein, UniProt P69699 1-81)
chain: MQPIQIAIVALVVAIIIAIVVWSIVIIEYRKILRQRKIDRLIDRLIERAEDSGNESEGEISALVEMGVEMGHHAPWDVDDL
With B4, the binding result in the experiment with Myc-His-β-TrCP [4] is reported as “binds”.
